For four compounds, cell count results are on record in the supplement of paper PMC4604168 (melanoma cell lines).

Test in all cases: cell count relative to DMSO control; melanoma cells; higher = more viable cells
Common to all, as to settings: library dose: standard library concentration; 72 h

For experiment [1], the system named is 501Mel.
The subject of experiment [2] is A101D.
Experiment [3] concerns A2058.
Experiment [4] has as its system A375.

The list shows a part of the results. Many values rest on one well or one pass, so single values are uncertain.
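Note: cells treated in 1,536-well plates, then fixed and DAPI-stained, with nuclei counted from automated high-throughput microscope images.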

As for `Cc1cc(Nc2cc(N3CCN(C)CC3)nc(Sc3ccc(NC(=O)C4CC4)cc3)n2)n[nH]1` [Tozasertib] + Oc1cc(-c2nc(-c3ccccc3)[nH]c2-c2ccncc2)ccc1Cl [L779450] (first compound 0.03 µM, partner dose 1 µM), the cell count in experiment [1] is 64.9%; in experiment [2], 64%; in experiment [3], 85%; in experiment [4], 69.7%.

On to `CC[C@]1(O)C[C@H]2CN(CCc3c([nH]c4ccccc34)[C@@](C(=O)OC)(c3cc4c(cc3OC)N(C=O)[C@H]3[C@@](O)(C(=O)OC)[C@H](OC(C)=O)[C@]5(CC)C=CCN6CC[C@]43[C@@H]65)C2)C1` [vincristine] + O=C(O)C(=O)Nc1sc2c(c1C(=O)O)CCNC2 [TCS401] (first compound 0.0005 µM, partner dose 8.33333 µM), for which the cell count in experiment [1] worked out at 38.5%; in experiment [2], 36.4%; in experiment [3], 4.63%; in experiment [4], 130%.

`N#CC[C@H](C1CCCC1)n1cc(-c2ncnc3[nH]ccc23)cn1` [ruxolitinib] + O=C(Nc1ccccc1)c1cc([N+](=O)[O-])ccc1Cl [GW9662] (first compound 5 µM, partner dose 10 µM): the cell count in experiment [1] came to 98%; in experiment [2], 80.7%; in experiment [3], 69.3%; in experiment [4], 136%.

With `CC[C@]1(O)C[C@H]2CN(CCc3c([nH]c4ccccc34)[C@@](C(=O)OC)(c3cc4c(cc3OC)N(C=O)[C@H]3[C@@](O)(C(=O)OC)[C@H](OC(C)=O)[C@]5(CC)C=CCN6CC[C@]43[C@@H]65)C2)C1` [vincristine] + CCN(CC)CCCCNc1ncc2cc(-c3cc(OC)cc(OC)c3)c(NC(=O)NC(C)(C)C)nc2n1 [PD173074] (first compound 0.0005 µM, partner dose 0.5 µM), the cell count in experiment [1] turned out to be 119%; in experiment [2], 86.7%; in experiment [3] it was 91.5%; in experiment [4], 114%.
